# Experimental data from PubChem BioAssay AID485364 (National Center for Advancing Translational Sciences (NCATS), 2010).
# The whole screen tested about 360,000 compounds, of which about 11,000 (3.1%) were called active. This list was built around the results that the source calls inconclusive (neither active nor inactive); the mix of calls is not that of the screen. Calls come from the whole dose curve; as a rule, active = well fitted inhibition curve with a large enough effect; inconclusive = small, poorly fitted or top-dose-only effect; inactive = no such curve, though single readings can be large or run the other way. Potencies of inconclusive entries are left out as doubtful fits.
# Target: Schistosoma mansoni thioredoxin glutathione reductase (TGR) (UniProt Q962Y6)
# Assay: qHTS Assay for the Inhibitors of Schistosoma Mansoni Peroxiredoxins; note: nearly all actives have a fitted effect of over 60% in size
# Conditions: purified TGR, DTNB reduction, TNB absorbance 405 nm; activity change, negative = inhibition: at 114 µM (top of the series) unless noted
# Procedure, shortened: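 Kinetic colorimetric format: TGR-catalysed, NADPH-driven DTNB reduction monitored via TNB absorbance. Enzyme dispensed at 20 nM; compound exposure 15 min at room temperature before reaction start.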
# % is set by controls: 0 for no effect and ±100 for the full control effect; potency is the fitted concentration of half-maximal effect; tags give direction and shape of the fitted curve.
Structure (SMILES),Potency,"activity change, negative = inhibition"
O=C1CSC(=S)N1/N=C/c1ccc(O)c(O)c1O,"inconclusive [inhibitor, full curve, poor fit]",
COc1ccc(C(=O)/C=C/Nc2ccc(S(=O)(=O)Nc3cc(OC)nc(OC)n3)cc2)c(OC)c1,"inconclusive [inhibitor, partial curve]",
O=C(CSc1nc(=O)n(Cc2ccco2)c2c1CCC2)Nc1cccc(F)c1,,inactive: -9.96%
Cc1cccc(NC(=O)COc2ccccc2C(=O)NC(C)c2ccccc2)c1 (configuration not stated),"inconclusive [inhibitor, partial curve]",
CCN1CC2CCCC3(C1)C(=O)NC1(CCCCC1)N=C23 (configuration not stated),"inconclusive [inhibitor, partial curve]",
COC(=O)c1sc(N/N=C/c2ccc(C(C)C)cc2)nc1C,,inactive: -16.7%
Cc1ccc(Cl)cc1Nc1sc(C(=O)c2ccc(F)cc2)c(N)c1S(C)(=O)=O,,inactive: -2.07%
O=C(c1cc(-c2ccco2)nc2ccccc12)N1CCCC(C(F)(F)F)C1 (configuration not stated),active: 35.5 µM,
CCCCC(=O)O[C@H]1CC[C@H]2[C@@H]3CCc4cc(O)ccc4[C@H]3CC[C@]12C,,inactive: -24.7%
COc1ccc(C2CC(=O)C(C=NCCCN3CCOCC3)=C(O)C2)cc1 (configuration not stated),"inconclusive [inhibitor, partial curve]",
CN1C2C=C3C(C#N)=C(N)C(C#N)(C#N)[C@@H](c4cccs4)C3C1CC2 (some centres not stated),"inconclusive [inhibitor, partial curve, poor fit]",
Cc1nc2ccc(N=NC3=C(O)CC(C)(C)CC3=O)cc2s1,,inactive: -11.7%
CC1=NN(c2ccccc2)C(=O)/C1=C/c1ccc(Cl)cc1,"inconclusive [inhibitor, full curve]",
COc1ccc(OC)c(C(=O)CSc2nc3ncccc3[nH]2)c1,"inconclusive [inhibitor, partial curve]",
CC1(C)C[C@H]2C=C(C=O)[C@]3(C=O)C[C@]3(C)[C@H]2C1,active: 50.1 µM,
CCCCCCCNC(=O)C1(CC2CC(c3cccc(Br)c3)=NO2)CCN(C(=O)CCCCCBr)CC1 (configuration not stated),"inconclusive [inhibitor, partial curve]",
O=C(CSc1nncc2ccccc12)Nc1cccc(C(=O)O)c1,,inactive: 0%
NC1=NN=C(c2ccc3c(c2)OCCO3)CS1,"inconclusive [inhibitor, single point]",
CC(C)NC(=O)c1cc(-c2ccco2)nn1-c1ccc(Cl)cc1,active: 2.82 µM,
Cc1ccc2c(=O)cc(C(=O)Nc3ccc(S(=O)(=O)N4CCCCC4)cc3)oc2c1,,inactive: -0.384%
O=C(OCC(=O)c1cccs1)c1ccc(NC(=O)c2ccco2)cc1,"inconclusive [inhibitor, partial curve]",
S=C(Nc1ccccn1)Nc1ccccc1Cl,"inconclusive [inhibitor, full curve]",
CCOC(=O)c1cc(-c2ccco2)nn1-c1ccc(C)cc1,active: 14.1 µM,
CC(=O)Nc1sc2c(c1C(c1cccc(Cl)c1)N1CCN(CCO)CC1)CCCC2 (configuration not stated),"inconclusive [inhibitor, partial curve]",

Structure (SMILES),Potency,"activity change, negative = inhibition"
COc1ccc(CC(NC(C)=O)C(=O)NC2CCN(S(=O)(=O)c3cccc4ccccc34)CC2)cc1OC (configuration not stated),"inconclusive [inhibitor, partial curve]",
CCn1c(=O)cc(SCC(=O)Nc2cc(Cl)ccc2OC)c2ccccc21,"inconclusive [inhibitor, full curve, poor fit]",
COc1ccc(-n2ccnc(NCc3cccs3)c2=O)cc1,"inconclusive [inhibitor, partial curve]",
C[C@@H]1CC2(CCCC[N+]2(C)C)C[C@H]1C,"inconclusive [inhibitor, partial curve]",
c1ccc(OCCn2c(-c3ccco3)nc3ccccc32)cc1,active: 8.91 µM,
Cc1cc(C)c(S(=O)(=O)/N=C2\C=C(Nc3ccc(C(=O)O)cc3)C(=O)c3ccccc32)c(C)c1,"inconclusive [inhibitor, partial curve]",
COc1ccc(C(c2nnnn2C2CCCCC2)N2CCN(c3ccccc3)CC2)cc1 (configuration not stated),,inactive: 1.04%
CC(=O)C1C2c3ccccc3O[C@@]1(C)N=c1s/c(=C/c3ccoc3)c(=O)n12 (some centres not stated),"inconclusive [inhibitor, partial curve]",
COc1ccc(NC(=S)N/C(=N/S(=O)(=O)c2ccc(C)cc2)c2ccccc2)cc1,"inconclusive [inhibitor, full curve]",
CCOCCn1ccc2c(OCC(=O)NCc3ccc(F)cc3)cccc2c1=O,,inactive: 19.5%
O=C(CCSCc1cccc(Cl)c1)NCc1ccccc1Cl,,inactive: 3.61%
COc1ccc(NC(=O)CSc2nc3c(cc2C#N)CN(C)CC3)cc1,active: 79.4 µM,
COc1ccc(OC/C(O)=C(\C#N)c2nc3ccccc3[nH]2)cc1,,inactive: -11.2%
CC1C/C(=C/c2ccccn2)C(=O)/C(=C/c2ccccn2)C1 (configuration not stated),active: 15.8 µM,
COc1cc(C(c2nnnn2C(C)(C)C)N2CCN(c3nc4ccccc4s3)CC2)ccc1O (configuration not stated),active: 0.355 µM,
O=[N+]([O-])CC(=Nc1ccc(F)cc1)N/N=C\c1oc(O)c2ccccc12,active: 11.2 µM,
COc1ccc(CNc2nc(-c3cccnc3)nn2C(C)=O)cc1,,inactive: 21.5%
Cc1cc(C)cc(NC(=O)N2CCC(C(N)=O)(N3CCCCC3)CC2)c1,"inconclusive [inhibitor, single point]",
COc1ccc(C(=O)O)cc1NC(=S)NC(=O)/C=C/c1ccc(C(C)C)cc1,"inconclusive [inhibitor, full curve, poor fit]",
CC(=O)OCC1(C)CN(c2ccccc2)NC1=O (configuration not stated),active: 7.94 µM,
N#CC1=C(N)SC(N)=C(C#N)C1c1cccc(Oc2ccccc2)c1,"inconclusive [inhibitor, partial curve]",
Cc1nc2sc(C(N)=O)c(N)c2c(C)c1CC(=O)c1ccccc1,,inactive: -15.7%
CC(=O)Nc1ccc(S(=O)(=O)NCc2ccc3[nH]c(C)cc3c2)cc1,"inconclusive [inhibitor, partial curve]",
C/C(=N\OCC(=O)Nn1c(=O)[nH]c2ccccc2c1=O)c1ccccc1,"inconclusive [inhibitor, partial curve]",

Structure (SMILES),Potency,"activity change, negative = inhibition"
Cc1nc(Oc2ccc(Cl)cc2)c2oc3ccccc3c2n1,"inconclusive [inhibitor, partial curve, poor fit]",
O=C(Cc1ccc(Cl)cc1)Nc1ncc([N+](=O)[O-])s1,"inconclusive [inhibitor, partial curve]",
Cc1c(CCOC(=O)c2ccccc2)sc[n+]1CC(=O)c1ccc(Br)cc1,"inconclusive [inhibitor, full curve, poor fit]",
COc1cc(O)c(C(CCN2CCCC2)c2cc(OC)c(OC)c(OC)c2)c(OC)c1 (configuration not stated),"inconclusive [inhibitor, partial curve]",
C=CCN(c1ccccc1)S(=O)(=O)c1cccc(C(=O)NCC(c2ccccc2OC)N2CCCC2)c1 (configuration not stated),,inactive: 2.25%
COc1cc(C(=O)OCC(=O)N2CCN(C(C)=O)CC2)ccc1OCC(C)C,,inactive: 2.83%
COc1cc2cc(/C=C/C(=O)c3ccco3)c(Cl)nc2cc1OC,"inconclusive [inhibitor, partial curve]",
CCNc1oc(COc2cccc(C)c2)nc1C#N,,inactive: -3.31%
O=C(CCc1ccccc1)NCc1ccncc1,,inactive: -1.35%
CS(=O)(=O)N1CCN(c2ccccc2NC(=O)c2ccc(-c3ccc(Cl)cc3Cl)o2)CC1,"inconclusive [inhibitor, partial curve]",
COC(=O)c1ccccc1NC(=S)NC(=O)COc1ccccc1,active: 22.4 µM,
CC1(c2ccccc2)NC(=O)N(CC(=O)NCCC2=CCCCC2)C1=O (configuration not stated),,inactive: 9.85%
COc1ccc(-c2nc3c4ccccc4n(CC(=O)Nc4ccc(C(C)C)cc4)c(=O)n3n2)cc1,,inactive: 9.11%
CCCCC1=CC2=C(c3ccco3)C(=O)C(C)(OC(=O)c3ccc(OC)cc3)C(=O)C2=CN1CCc1ccccn1 (configuration not stated),"inconclusive [inhibitor, full curve]",
Cc1ccc(-n2nc(C)c3c(=O)[nH]c(C(F)(F)F)nc32)cc1,,inactive: -0.244%
O=C(O)CCC(=O)Nc1cccc(-c2nnc(-c3ccccc3)o2)c1,active: 25.1 µM,
COc1ccc(NC2CC(=O)N(c3cccc(C)c3)C2=O)cc1 (configuration not stated),active: 35.5 µM,
COc1ccc(N2CCN(CCNC(=O)Nc3ccc(C)c(Cl)c3)CC2)cc1,,inactive: -2.98%
COc1ccc(NC(=O)c2ccc(=O)[nH]c2)cc1S(=O)(=O)N1CCCCC1,,inactive: -1.73%
COc1ccc(C)cc1NS(=O)(=O)c1cn(C)c(=O)n(C)c1=O,"inconclusive [inhibitor, single point]",
O=C(c1cnn2c1NC(c1ccco1)CC2C(F)(F)F)N1CCN(c2cccc(Cl)c2)CC1 (configuration not stated),"inconclusive [inhibitor, partial curve]",
Cc1sc(NC(=O)CSc2nnc(C)c(=O)[nH]2)c(C#N)c1C,"inconclusive [inhibitor, partial curve]",
COc1cccc2c1C(=O)c1c(O)c3c(c(O)c1C2=O)C[C@@](O)(C(=O)CO)C[C@@H]3O[C@H]1C[C@H](N)[C@H](O)[C@H](C)O1,"inconclusive [inhibitor, partial curve]",
CCC(=O)Nc1ccc(C(=O)c2ccccc2)cc1,"inconclusive [inhibitor, full curve, poor fit]",
